From patent US7803910B2, “Soluble CD164 polypeptides” (Merck Serono S.A., priority 2005, dated 2010)

Assays:
[1] = test system: peritoneal recruitment of macrophages; assay: Thioglycollate-induced leukocyte peritoneal recruitment assay; type: in vivo, C3H mice
Experimental: The effect of a sCD164 variant on immune cells recruitment was tested using the thioglycollate-induced leukocyte peritoneal recruitment assay. In this example the capacity of ssCD164-Fc (SEQ ID NO: 16) to decrease monocytes/macrophage recruitment was evaluated.
Forty-eight hours after the challenge, the animals were sacrificed and the lavage of the peritoneal cavity was conducted using 2×5 ml PBS-1 mM EDTA (+4° C.). After centrifugation (10 min at 3000 rpm), the pellet was resuspended in 1 ml PBS. The peritoneal cells were counted using a Beckman/Coulter counter. Dexamethasone (1 mg/kg), the anti-inflammatory compound was used as reference positive control.

LPS-induced TNFα release = assay: LPS-induced TNFalpha release in mice (Example 5); type: in vivo, C3H mice; details: 1 mg/kg iv, 15 minutes prior to LPS; P<0.001
Experimental: C3H mice (Elevage Janvier) (8 week old), received E. Coli's LPS (O111:B4, Sigma, 0.3 mg/kg, ip) 15 minutes after the administration of the test molecules. LPS was solubilized in sterile saline. Dexamethasone (0.1 mg/kg, sc) was used as reference. 24 h later, the animals were sacrificed and the blood was sampled. Plasma levels of TNF-αwere determined in serum using an ELISA kit (R&D). Statistical analysis was determined with an ANOVA test followed by a post-test of Dunnett.

C3H mice = assay: Concanavalin A-induced hepatitis in mice; type: in vivo; details: 1 hr before concanavaline A, 18 h
Excerpt: Several sCD164 variants have been shown in vitro to inhibit secretion of certain cytokines by ConA-stimulated human peripheral blood mononuclear cells (PBMC), see Examples 2 and 3 above. Since cytokines play a crucial role in T-cell induced ConA induced liver hepatitis (Seino et al. 2001, Kusters, 1996; Toyonaga et al. 1994), the present model was used to further test the sCD164 variants.
Eighteen hours later, the animals were sacrificed and the blood was sampled. Serum levels of transaminases (alanine transaminase (ALAT), aspartate aminotransferase (ASAT)) were determined in serum using a clinical analyzer (Hitachi). Dexamethasone (0.3 mg/kg, sc) was used as reference.

female mice (Balb/c) = assay: Dextran Sodium Sulfate-induced ulcerative colitis model; type: in vivo; details: Study 3; 1 mg/kg, sc
Experimental: The DSS model of colitis mimics some aspects of the human affection such as macrophage infiltration and up regulation of inflammatory cytokines (i.e. TNFα, IL-1p, IL-6) in the colon mucosa.
Ulcerative colitis (UC) was induced in female mice (Balb/c, 20-22 g, Elevage Janvier) by Dextran Sodium Sulfate (DSS 4%) administered in drinking water (oral route). The mice had free access to DSS during 7 days. Body weight was determined daily. The severity of the UC was assessed by a clinical score estimating the constituency of the stool (0=firm, 1=loose, 2=diarrhea) and the presence of blood (0=no blood, 1=occult blood, 2=gross rectal bleeding). Seven days after the induction of the disease, the animals were sacrificed. The length and the weight of the colon were determined and the ratio Weight/Length/100 g body weight was calculated. The spleen weight was also determined. Blood was sampled to determine serum amyloid protein (SAA) using a specific ELISA.
Test substances or vehicle (PBS/0.02% BSA) was administered at days 3, 4, 5 and 6 after the induction of the UC. Enbrel® (1 mg/kg, sc) was used as reference compound. Three studies were performed as per the following table:
In Study 3, the content of IL-1β in the colon was also measured.

Balb/c mice = assay: K/BxN serum transfer model of arthritis; type: in vivo; details: for decrease of clinical score / decrease of paw swelling: 5 days per week
Experimental: This is a passive model of arthritis, induced by serum transfer of K/B×N mice (spontaneously develop arthritis) to naïve mice. This model depends on macrophages and neutrophils. Inflammatory cytokines such as TNFα and IL-1β play an important role in the development of the disease.
Eight week old Balb/c mice (Charles River) received by iv route 150 μl of K/B×N serum (Charles McKay, Australia), containing high level of auto-antibodies against glucose-6-phosphate isomerase. They evolved severe arthritis assessed with a clinical score (0-12) evaluating the presence of swelling, erythema, edema, joint rigidity and ankylosis. The final score was the sum of scores on individual paws. The swelling of ankle, fore paw and hind paw was measure using a caliper. The clinical score and the swelling were determined every day. Fourteen days after the induction of the disease blood was sampled to determine osteocalcin and the legs were removed and fixed in formalin for histology.
Enbrel® (10 mg/kg, sc, once daily, 3 days a week) was used as reference compound.

[2] = Study 1, 0.3 mg/kg ip once daily

B1: sCD164-Fc: SEQ ID NO: 16, Fc-fusion protein comprising sCD164 fused to an Fc part of an immunoglobulin (protein)
chain: DKNTTQHPNVTTLAPISNVTSAPVTSLPLVTTPAPETCEGRNSCVSCFNVSVVNTTCFWIECKDESYCSHNSTVSDCQVGNTTDFCSVSTATPVPTANSTAKPTVQPSPSTTSKTVTTSGTTNNTVTPTSQPVRKSTFDA[human IgG1 Fc not printed]
modifications: homo sapiens
- reduction of peritoneal recruitment of macrophages ([1]; 0.003 mg/kg iv, 15 min before and 24 h after thioglycollate, 48 h): 32%
- reduction of peritoneal recruitment of macrophages ([1]; 0.03 mg/kg iv, 15 min before and 24 h after thioglycollate, 48 h): 38%
- reduction of peritoneal recruitment of macrophages ([1]; 0.3 mg/kg iv, 15 min before and 24 h after thioglycollate, 48 h): 34%
- reduction of peritoneal recruitment of macrophages ([1]; 0.3 mg/kg sc): −27%
- LPS-induced TNFα release (LPS-induced TNFα release): significantly decrease
- change of increase in serum transaminase ALAT (C3H mice; 0.1 mg/kg sc): −52%
- change of increase in serum transaminase ASAT (C3H mice; 0.1 mg/kg sc): −54%
- change of increase in serum transaminase ALAT (C3H mice; 0.3 mg/kg sc): −69%
- change of increase in serum transaminase ASAT (C3H mice; 0.3 mg/kg sc): −64%
- change of increase in serum transaminase ALAT (C3H mice; 1 mg/kg sc): −59%
- change of increase in serum transaminase ASAT (C3H mice; 1 mg/kg sc): −63%
- colon reduction (female mice (Balb/c)): improved significantly
- splenomegaly (female mice (Balb/c)): improved significantly
- reduction of serum osteocalcin (trend) (Balb/c mice; Study 1, 0.3 mg/kg ip): 6%
- decrease of clinical score (Balb/c mice; [2]): 7%
- decrease of paw swelling (Balb/c mice; [2]): 9%
- reduction of serum osteocalcin (trend) (Balb/c mice; Study 1, 1 mg/kg ip): 11%
- decrease of clinical score (Balb/c mice; Study 1, 1 mg/kg ip once daily): 14%
- decrease of paw swelling (Balb/c mice; Study 1, 1 mg/kg ip once daily): 19%
- reduction of serum osteocalcin (trend) (Balb/c mice; Study 1, 3 mg/kg ip): 37%
- decrease of clinical score (Balb/c mice; Study 1, 3 mg/kg ip once daily): 17%
- decrease of paw swelling (Balb/c mice; Study 1, 3 mg/kg ip once daily): 21%
- efficacy, dose dependence (Balb/c mice; Study 1, ip route): dose dependent
- reduction of serum osteocalcin (trend) (Balb/c mice; Study 2, 1 mg/kg sc): 16%
- decrease of clinical score (Balb/c mice; Study 2, 1 mg/kg sc once daily): 6%
- reduction of paw swelling (Balb/c mice; Study 2, 3 mg/kg sc): 14%
- reduction of serum osteocalcin (trend) (Balb/c mice; Study 2, 3 mg/kg sc): 31%
- decrease of clinical score (Balb/c mice; Study 2, 3 mg/kg sc once daily): 14%
- efficacy, dose dependence (Balb/c mice; Study 2, sc route): dose dependent
